From PubChem BioAssay AID2451 (National Center for Advancing Translational Sciences (NCATS), 2010)
Screen size: about 290,000 compounds; about 2,100 (0.72%) were called active. This list was built around the results that the source calls inconclusive (neither active nor inactive); the mix of calls is not that of the screen. Calls come from the whole dose curve; as a rule, active = well fitted inhibition curve with a large enough effect; inconclusive = small, poorly fitted or top-dose-only effect, or effect the other way; inactive = flat fitted curve, though single readings scatter. Where the call is inconclusive, the potency comes from a doubtful curve fit.

These molecules were tested against Fructose-bisphosphate aldolase (Giardia intestinalis (strain ATCC 50803 / WB clone C6)) (UniProt A8B2U2) (assay: qHTS Assay for Inhibitors of Fructose-1,6-bisphosphate Aldolase from Giardia Lamblia). Settings: purified Giardia FBPA; series mostly up to 59.6 µM.
Method in brief: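 40 nM FBPA preincubated 10 min at RT with compound (up to 57.5 uM final), then substrate plus GAPDH/TPI/NAD/arsenate coupling and diaphorase/resazurin added. Fluorescence read after 20 min at RT, 525/598 nm.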
Note: nearly all actives have a fitted effect of over 55% in size.
Potency is the fitted concentration of half-maximal effect; tags give direction and shape of the fitted curve.

Sequence of UniProt A8B2U2 (A8B2U2 whole entry, looked up): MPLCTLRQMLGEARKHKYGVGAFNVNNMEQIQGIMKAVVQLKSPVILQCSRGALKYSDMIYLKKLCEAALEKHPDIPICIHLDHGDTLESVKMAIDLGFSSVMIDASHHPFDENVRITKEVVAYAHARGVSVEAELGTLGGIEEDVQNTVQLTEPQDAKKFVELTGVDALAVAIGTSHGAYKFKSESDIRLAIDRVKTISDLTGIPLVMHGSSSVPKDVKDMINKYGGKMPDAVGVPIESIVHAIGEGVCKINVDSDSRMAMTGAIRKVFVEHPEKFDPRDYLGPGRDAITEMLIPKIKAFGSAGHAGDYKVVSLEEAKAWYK

Structure (SMILES) | Potency
COc1ccc(CN2CCN(Cc3cc(=O)oc4cc(C)ccc34)CC2)c(OC)c1OC | inactive
Nc1ccc(C(=O)OCCCc2nc3cc4ccccc4cc3[nH]2)cc1 | inconclusive: 17.7 µM [inhibitor, single point]
CCOC(=O)CSc1nc(Cc2ccccc2)nc2ccccc12 | inactive
CC(C)(O)C#Cc1ccc(C(=O)NC2CCCCC2)s1 | inactive
CN1CCN(CC(=O)n2c3c(c4ccccc42)CCCC3)CC1 | inconclusive: 17.8 µM [inhibitor, partial curve]
Cn1c(-c2ccc3c(c2)OCO3)cnc1NCc1cccc(O)c1 | inconclusive: 19.9 µM [inhibitor, partial curve]
CC1(C)Cc2c(sc3nc4n(-c5ccccc5)c(=O)c(CCC(=O)O)nn4c(=O)c23)CO1 | inconclusive: 14.1 µM [inhibitor, partial curve]
CC(=O)c1ccc(CCCCCCCCCC(=O)O)s1 | inconclusive: 15.8 µM [activator, single point]
S=C(NCc1ccco1)N1CCN(Cc2ccco2)CC1 | inconclusive: 19.9 µM [inhibitor, partial curve]
COc1ccc(-c2nn(-c3ccccc3)cc2/C=N/Nc2ccc3ccccc3n2)cc1OC | inactive
CCOc1cc(CNc2ccc(O)cc2)ccc1OCc1ccc(Cl)cc1Cl | active: 15.8 µM
CCc1ccc(NC(=O)CSc2nncn2-c2cccnc2)cc1 | inactive
CCOC(=O)Nc1ccc2c(c1)N(C(=O)CN(C)C)c1ccccc1CC2 | inconclusive: 7.94 µM [inhibitor, partial curve]
O=C(c1c(F)cccc1F)N1CCCC(c2nc(-c3cccs3)no2)C1 (stereo not drawn) | inactive
COC(=O)N/N=C1/C/C(=N\NC(=O)OC)c2ccccc21 | inconclusive: 15.8 µM [inhibitor, single point]
O=C(CSc1nnc2sc3ccccc3n12)c1ccco1 | inactive
CN(C)S(=O)(=O)c1ccc(C(=O)Nc2nnc(-c3ccc4c(c3)CCCC4)o2)cc1 | inconclusive: 17.7 µM [activator, partial curve]
COc1ccc(C(=O)NCC(=O)N2CCN(c3ccc(Cl)cc3)CC2)cc1 | inactive
COc1cccc(-n2c(=O)c3ccccc3n3c(=S)[nH]nc23)c1 | inconclusive: 17.8 µM [inhibitor, partial curve]
O=S(=O)(c1ccc2ccccc2c1)N1CCN(C2Cc3ccccc3C2)CC1 | inconclusive: 15.8 µM [inhibitor, partial curve]
O=S(=O)(Nc1c(S(=O)(=O)c2ccccc2)c2nc3ccccc3nc2n1C1CCCCC1)c1ccccc1 | inconclusive: 2.23 µM [inhibitor, full curve]
O=c1cnnc(N/N=C/c2ccccn2)[nH]1 | active: 0.792 µM
Brc1ccccc1OCCNCc1ccccc1 | inconclusive: 15.8 µM [inhibitor, partial curve]
Cn1cccc1C(=O)N1CCC2(CC1)CCN(c1cccc(-c3ccccc3)c1)CC2 | inactive

Structure (SMILES) | Potency
O=C(Nc1cccnc1)c1ccc(-c2cc(Cl)ccc2Cl)o1 | inactive
O=C(COc1ccc2ccccc2c1)N1CCN(CC2CC3C=CC2C3)CC1 (stereo not drawn) | inconclusive: 15.8 µM [inhibitor, partial curve]
O=C(CSc1ccc(-c2ccccc2)nn1)c1cccs1 | inactive
Cc1c(C(c2ccc(F)cc2)c2c(C)n(C)n(-c3ccccc3)c2=O)c(=O)n(-c2ccccc2)n1C | inconclusive: 35.5 µM [inhibitor, single point]
Nn1c(SCC(=O)Nc2ccccc2C(F)(F)F)nncc1=O | active: 20 µM
CCCCCCn1c(C(C)NC(=O)c2ccco2)nc2ccccc21 (stereo not drawn) | inactive
COc1ccc2c(c1)Cc1sc(NC(=O)c3cccs3)nc1-2 | inconclusive: 5.61 µM [inhibitor, full curve, poor fit]
COC(=O)c1ccc(C(NC(=O)OCc2ccccc2)/C(C)=C/[C@@H](C)C(=O)N2CCN(C)CC2)cc1 (stereo partly drawn) | inactive
O=C(O)c1ccccc1-c1ccccc1C(=O)Nc1cccc(Br)c1 | inconclusive: 15.8 µM [activator, partial curve]
O=C(NC(=S)Nc1ccc(Cl)cn1)c1cc([N+](=O)[O-])ccc1N1CCOCC1 | active: 14.1 µM
Cc1cccc(/C(N)=N/OC(=O)Cc2ccccc2)c1 | inactive
O=C(COc1ccccc1C(=O)NCC1CCCO1)Nc1ccc(Cl)cc1Cl (stereo not drawn) | inactive
COc1ccc(-n2c(N)c(C#N)c3ccc([N+](=O)[O-])cc3c2=O)cc1 | inconclusive: 5.61 µM [inhibitor, full curve]
O=C(O)c1cccc(N2C(=O)/C(=C/c3ccc(SCc4ccc(Cl)cc4)o3)SC2=S)c1 | inconclusive: 17.7 µM [inhibitor, single point]
CCOC(=O)N1CCN(C(c2cccnc2)c2ccc3cccnc3c2O)CC1 (stereo not drawn) | inconclusive: 7.06 µM [inhibitor, partial curve]
Cc1c(-n2c(O)c(C3=c4ccccc4=NC3=O)sc2=S)c(=O)n(-c2ccccc2)n1C | inconclusive: 5.61 µM [inhibitor, partial curve]
CCCCCCCCCCCCCCC(C(=O)O)C(O)(CC(=O)OC)C(=O)O (stereo not drawn) | inconclusive: 17.7 µM [activator, single point]
Cc1cc(OCC(O)CN2CCCC2)ccc1C(C)C (stereo not drawn) | inconclusive: 28.2 µM [inhibitor, single point]
O=C(Nc1ccc2c(c1)oc1ccccc12)C1CC1 | inactive
COc1ccc(N/C(C)=C/C(=S)Nc2ccccc2)cc1 | inconclusive: 9.98 µM [inhibitor, partial curve]
Cc1cc(C)nc(NS(=O)(=O)c2ccc(NC(=S)NC(=O)CC(C)C)cc2)n1 | inactive
O=C1CC(c2ccccc2)c2ccccc21 (stereo not drawn) | inconclusive: 31.5 µM [inhibitor, single point]
CCN1C(=O)c2cccc3c(NC(=O)c4ccc(S(=O)(=O)N(C)C)cc4)ccc1c23 | inconclusive: 19.9 µM [inhibitor, partial curve]
CC1CN(C(=S)NC(=O)c2cccc([N+](=O)[O-])c2)CC(C)O1 (stereo not drawn) | inconclusive: 22.3 µM [inhibitor, partial curve]
